assay: soluble on expression in E. coli; label from the status in PepcDB or PDB records

| Sequence | soluble on expression in E. coli |
| --- | --- |
| GAGGHKNLPAKGDLHIPVFENVNVRFSPDTYPDNYNEADGTGVYHLVNGRIILKKITLPEYKRNVSVSLKVTLASNGDRWDKSGSCFVLPKSSAINLLTIARDGMKFPSVDSLKLEKMVGIVPGKDYLPTVELMRFMTPFGIGHYSNNNDSLSSKRRPVYIPKWESNVTWQQDITDLYPLLEGEAYVGIYIDTWTSEGYLVNADIDVKESRLACDVLPKRHVEPLMNTVYYMGQSYPDIFARRDVSTDFTVPKGAKNIRLKYIVTGHGGHSGGDEFVQKRNIISVDGKEVLNFIPWRDDCASFRRFNPATGVWLIKRLASYIGEKGYTEKEVEEPLASSDLSRSNWCPGSDVVPEEAVIGTLAPGKHTFTVSIPEAQAVDGNKLNHWLVSAYLVWEE | soluble |
| MADEDDYQDMDNDDFVDDNEMEDVIEEDPQRPDNEDEDDDNVDENFELFDQGKAVPTSEHVTTPFMTKYERARVLGTRALQIAMGAPVMVELEGETDPLEIARKELKQRRIPIIVRRYLPDGSYEDWPTDQLQLADW | soluble |
| MAFAPPLPIRRRKVLIPRPRSRFLLVTCPKCGNRQVVFSHSTFRARCLNCGEVLVEPTGGKARILGKIERIYGLEHHHHHH | not soluble |
| MGIDINHKYDRKVRRTEPKSQDVYLRLLVKLYRFLQRRTNKKFNRIILKRLFMSKINRPPLSLQRIARFFKAANQPESTIVVVGTVTDDARLLVVPKLTVCALHVTQTARERILKAGGEVLTFDQLALRSPTGKNTLLLQGRRTARTACKHFGKAPGVPHSHTRPYVRSKGRKFERARGRRSSCGYKKLEHHHHHH | soluble |
| MGKIMKPGKVVLVLRGKYAGRKAVVVKQQDEGVSDRTYPHAIIAGIDRYPLKVTKDMGKKKIEKRNKLKPFLKVVSYTHLLPTRYSVDVAFDKTNINKEALKAPSKKRKALVEVKSKFEERYKTGKNKWFFTKLRF | not soluble |
| MRMKIAELSLFQHDLPVKDGPYTMSYGEISALDTTLVKLVTDTGIVGWGETCPLGPNYAEAHAEGARAALGAMAQALIGTEVLPLAAHRAMDGALLGHGYAKAAVDMAVYDALGKSLGLRVAELLGGAVTELVPSYYAIGIETPEEAGRIAAERRAEGYPRVQLKVGGRAPEVDVASIRKVWEAIKGSGMRLAIDANRGWTTRDAIGVSQACADIPLVMEQPCASNDEMRALRGMLRHPLYMDETSFDVSTVIGAAGTGMVDGFGFKLTRLGGLQRMATARDICAARRLPHSCDDAWGGDILAAACTHLGATVEPSLLEGVWIAAPYIDGHYDDAAGIEIVGGHIALPAGPGLGIVPDEARFGAPVLVV | soluble |
| MVDIAFELRKVIDSGKYTLGYRKTVQSLKMGGSKLIIIARNTRPDRKEDLEYYARLSGTPVYEFEGTNVELGTAVGKPHTVSVVSILDAGESRILALGGKE | soluble |
